# Measured values published in the supplement of paper PMC11417369.
# ± gives the standard deviation of the averaged measurements. This is one part of the list.
# Test system: PfAP2-G AP2 domain (GST-tagged)
# Assay: gcPBM binding intensity (ln(normalized median fluorescence intensity)); higher = stronger DNA binding
# Procedure, shortened: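 Using an Agilent 4 × 180k array, primer-extended double-stranded 36-bp intergenic genomic probes and negative controls were exposed for 1 h to GST-fused P. falciparum DNA-binding domains expressed in E. coli. Binding was carried out in 1× PBS with 1% milk, 0.2 mg/ml BSA, 0.5% salmon testes DNA and 0.03% Triton X-100, and protein was detected with Alexa488 anti-GST antibody and a 488 nm scan. Binding intensity is the highest Masliner-normalised natural-log median intensity across replicate spots of either probe orientation.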
row,Sequence,gcPBM binding intensity (ln)
1,TCATCTTTTATATGTTGTACGTATTTTCATTTATAT [XGTACX_site4855],11.5 ± 0.91
2,AAGTAGTGTTAATACTGTACTTATATTTTTTATTAT [XGTACX_site8264],11.4 ± 0.89
3,TTATTATATATATCTCGTACGTGTATACGCCTACCA [XGTACX_site8375],10.9 ± 0.54
4,TGTTATATTTCAAATTGTACTAATCTAATTAATAAA [XGTACX_site604],11 ± 0.69
5,AAAAAAATGAAACACACACACACATATATATATATA [CACACA_site1043],10.3 ± 0.69
6,AAACAATTACACATATGTATGTATATATATATATAT [TGCATGCA_negctrl_site536],10 ± 0.22
7,ACAAAGTTTATAGAACGTACATACTTACACATATTT [XGTACX_site556],11.1 ± 0.6
8,TTTTTTTCTTTTTGAGGTACGCATTATTTTATTTGT [XGTACX_site6996],11.3 ± 0.79
9,ATAATTTGATGGTTAACACACATATAGATTATAGAT [CACACA_site7200],9.96 ± 0.057
10,AAAGATTGCGATGGTTGTACTTTTCTATATTTTTTT [XGTACX_site3492],11.3 ± 0.74
11,CTAAAATACGAACACACACACACATATAAATAAATA [CACACA_site7872],10.3 ± 0.45
12,TATACTTCTTATTAAATGAGTAGTATATATTATATA [TGCATGCA_negctrl_site299],10 ± 0.28
13,TTTTTTAAAAGAAAATAAAAAATAAGCATAATATGA [CACACA_negctrl_site1574],9.97 ± 0.014
14,AAGGGTTATTTGATATGTACTTATATATATATATAA [XGTACX_site1659],11.1 ± 0.87
15,AAGGTGGAAACAATTACACACACACTAATAAAAAAA [CACACA_site9051],10.1 ± 0.22
16,AAGTACAAATTTAATAAAAATGAAACAAATATGTAT [TGCATGCA_negctrl_site94],10.37 ± 0.092
17,AAAAACCATGGGCACACACACATAATATATAATATA [CACACA_site1425],10.6 ± 0.43
18,GTTATATATATATATATATATATATATATTTTTTTT [GTGCAC_negctrl_site597],9.62 ± 0.099
19,TATATCGTTAATTATACACACATAAAATTAAACTTT [CACACA_site1274],10.1 ± 0.25

row,Sequence,gcPBM binding intensity (ln)
1,ATGGAATTTTTAGAATATGGATAATGTTACTTAAGT [CACACA_negctrl_site494],9.945 ± 0.078
2,ACCATACATACATACACACACACACGCATATTTATA [CACACA_site7386],10.4 ± 0.28
3,TAATTTTAAATATCTTCACACATTATATTTTTATAT [CACACA_site5411],9.62 ± 0.13
4,TATAATAATACTTATTGTACGATTAGCTTAATTCGT [XGTACX_site15],10.9 ± 0.5
5,TATATAAATAGATACACACATACATACATACATACA [CACACA_site260],10.4 ± 0.31
6,AAATTAAAAAAGAATATACACACCAAAACTGTTTGT [CACACA_site958],9.77 ± 0.26
7,TAAAAAAAGGAAAACATACAATTCTATTTTTCAATA [CACACA_negctrl_site474],9.64 ± 0.042
8,TACAAACTATGATGCACACATATATATCTGTATCCA [CACACA_site4809],9.995 ± 0.078
9,TATTTTAATTAATATACACACGCTTATATATATATA [CACACA_site7909],10.1 ± 0.18
10,TTTCTTTTTTTTTTTTGTACATATTTTAATTATTTT [XGTACX_site8676],11.1 ± 0.68
11,TATTATATATATAACTGTACGTTTATAATATAAAAA [XGTACX_site3778],11.4 ± 1.1
12,TAATCATTTTAGCTTACACACAAAATTTGGTTATAA [CACACA_site5604],9.915 ± 0.007
13,ACAGGATTGGTTCAAACACACATATTATATGACTAT [CACACA_site4536],10.01 ± 0.028
14,AGTGTTAAAAATGAGGGTACATATAAAATACAGTTC [XGTACX_site457],11.2 ± 0.64
15,ATATTTATTTATATGTGTACTTATGTTTATATAAAA [XGTACX_site4250],11.5 ± 0.81
16,CATATATAAATATGTATGCACTTTAACAAAATGTAT,9.995 ± 0.007
17,ATTCCACCTTAAAACTGTACTTTCTCAATCTTTTAT [XGTACX_site796],11.4 ± 0.89
18,TAATAAATAGGACACACACACATATATATATATTAT [CACACA_site4891],11 ± 0.63
19,ATTATGTTATATACACGTACGTGTGCTTTATAATTA [XGTACX_site2728],11.2 ± 0.52

row,Sequence,gcPBM binding intensity (ln)
1,ATAAAGTAGATATTTTGTACGCAGGTTGTATATATT [XGTACX_site1464],11.2 ± 0.6
2,TACTTTACTAATATATATAGGAGAGTATACATGAAA [CACACA_negctrl_site63],10.1 ± 0.23
3,GGAATTATAATAAATGGTACACATAAAAAAAAAAAA [XGTACX_site8343],11.2 ± 0.97
4,AAATAATACCAAATGTGTACTTATTTCACTAATAGA [XGTACX_site7571],11.4 ± 1.1
5,ATATATACTTATATTTGTACACAAAGGTATCTCTAG [XGTACX_site3805],11.2 ± 0.71
6,GGAATAATAAAATTATGTACATAAGAATCATATACT [XGTACX_site6810],11.2 ± 0.37
7,TTTGATAAATTATACACACACAATATATATAAAATA [CACACA_site2023],10.1 ± 0.12
8,ACGGACTTAAAATACACACACACCAAAAAAAAAAAA [CACACA_site7304],10.3 ± 0.52
9,AAAAAAAAAAATCGCTGTACTTCTAAAGGTGTGTTA [XGTACX_site843],11.4 ± 0.82
10,CAAACAAACGGACACACACACACACCCAAAAATGAT [CACACA_site5363],11.2 ± 0.69
11,AGTTTTATATAAGCTTGTACTTAATATTATTAAGTA [XGTACX_site5919],11 ± 0.68
12,TTTTATTTTTTAGTAGTACACACTTTTTGTACCTTT [CACACA_site599],11.8 ± 1
13,AATAATATATAATAATGTACAAAAAAAAAAAAAAAA [XGTACX_site4158],10.6 ± 0.68
14,AAGCTTTGGTGTTATGCATGCAATTAAACTATTAGT [TGCATGCA_site277],9.89 ± 0.071
15,ATTTTGTTATGAAACACACACATATAAATATAAATA [CACACA_site7679],10.2 ± 0.23
16,AATACACGCAGACACACACACAAAAAAAAAAAAAAA [CACACA_site6384],10.2 ± 0.61
17,TATATAAAACATGGGTGTACCAACATAAATCATATA [XGTACX_site2320],10.9 ± 0.64
18,AATTGTGCATTATATTGTACACGTGTTGTATATATT [XGTACX_site975],11.4 ± 0.81
